From ChEMBL document CHEMBL1201862, “PubChem BioAssay data set” (2004)
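Interpolation was linear, between the two tested concentrations surrounding the appropriate level; five concentrations were tested over 48 hours in 96-well plates. The concentration for 50% growth inhibition is given as GI50.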 Activity calls are given as the source filed them. No stated cut-off is given here; in the data, active = GI50 up to about 1.1 µM and inactive = higher.

What follows are molecules tested on NCI-H322M (assay: inhibition of tumour cell growth, NCI panel, 48 h).

Row | Structure (SMILES) | GI50
1 | Cc1cc2c(cc1-c1cc3c(cc1C)C(C(C)C)=C(O)C(=O)/C3=C\NCC1CCCN3CCCCC13)/C(=C/NCC1CCCN3CCCCC13)C(=O)C(O)=C2C(C)C (stereo not given) | inactive: 5.66 µM
2 | O=C(CCC(=O)Nc1ccc(Cl)c(Cl)c1)CC(=O)c1ccc(Cl)cc1 | inactive: > 100 µM
3 | COC(=O)Nc1nc2cc(S(=O)(=O)n3nnc4ccccc43)ccc2[nH]1 | inactive: > 100 µM
4 | O=C(C/N=C(\CN(c1ccccc1)c1ccccc1)Oc1c(Cl)cc(Cl)cc1Cl)n1cnc2ccccc21 | inactive: > 100 µM
5 | CC(C)(C)OC(=O)NCC(=O)N(CCc1ccc(Cl)c(Cl)c1)CCN1CCCC1 | inactive: 19.7 µM
6 | CC(C)CC(=O)CC(O)C(Cl)(Cl)Cl (stereo not given) | inactive: > 100 µM
7 | CCCCc1c(N(C)C)c(OC(C)=O)c(-c2cn(C)c3ccccc23)oc1=O | inactive: 27.6 µM
8 | CCCCCCCCCCCCN(CC(O)C(O)C(OC1OC(CO)C(O)C(O)C1O)C(O)CO)C(=O)CCCCCCCCCCC (stereo not given) | inactive: 19.7 µM
9 | O=Nn1c2ccccc2c2ccccc21 | inactive: > 100 µM
10 | COC(=O)N/N=C(\C(=O)Nc1cccc([N+](=O)[O-])c1)c1nc2ccc([N+](=O)[O-])cc2nc1O | inactive: 29.1 µM
11 | c1ccc2c(c1)SCCc1cn[nH]c1-2 | inactive: > 100 µM
12 | COC(=O)[C@]1(NC(=O)c2ccccc2)C[C@H]1C=O | inactive: 33.4 µM
13 | CN1CC(S(=O)(=O)c2ccccc2)CC(S(=O)(=O)c2ccccc2)C1c1ccccc1 (stereo not given) | inactive: 13.7 µM
14 | C=C1CC(Cn2cc(C)c(=O)[nH]c2=O)(c2ccc(Cl)cc2)OC1=O (stereo not given) | inactive: 16.8 µM
15 | CC(=O)N(C(C)=O)c1c(N)n(C)c(=O)[nH]c1=O | inactive: > 100 µM
16 | Cc1cc(C)c(C2=NO[C@@H]3[C@H]2C(=O)C=C2N(Cc4ccccc4)CCO[C@@]23O)c(C)c1 | inactive: > 100 µM
17 | COc1ccc2c(c1)O[C@@H]1C(O)Oc3cc(OC)c(OC)cc3[C@]1(O)C2=O (stereo not given in full) | inactive: > 100 µM
18 | Cc1nc(-c2ccccc2)c(C)n2c1nc1ccccc12 | inactive: 31.5 µM
19 | CN(C)c1ccc(/C=C(\NC(=O)c2ccccc2)C(=O)NC(CCC(=O)O)C(=O)O)cc1 (stereo not given) | inactive: > 100 µM
20 | COc1cccc(OC)c1C1ON=C(c2ccccc2)N1C12CC3CC(CC(C3)C1)C2 (stereo not given) | inactive: 45 µM
21 | Cc1ccc(S(=O)(=O)N/N=C(\c2nc3ccc(Cl)cc3nc2O)C(O)c2cccc([N+](=O)[O-])c2)cc1 (stereo not given) | inactive: > 100 µM
22 | N#CC(NNC(=O)Cc1ccccc1)c1cccc(O)c1 (stereo not given) | inactive: > 100 µM

Row | Structure (SMILES) | GI50
23 | CSc1nc(C)c2c(n1)N(c1ccc(Cl)cc1)CC2 | inactive: > 100 µM
24 | O=C1C=CC(=O)c2nc3c(cc21)CCC3 | inactive: > 100 µM
25 | c1ccc2c(c1)CCc1c(-c3n[nH]c4c3CCc3ccccc3-4)n[nH]c1-2 | inactive: > 100 µM
26 | Cc1cc2c(cc1Cl)SC(NNC(=O)c1ccncc1)=NS2(=O)=O | inactive: > 10 µM
27 | COc1ccc(CCN2CCOCC2)cc1 | inactive: > 100 µM
28 | O=c1oc2cccnc2n1CCCCN1CCN(c2ccccc2)CC1 | inactive: > 100 µM
29 | COc1cc(COC(=O)N[C@H](C(=O)O)C(C)(C)C)c([N+](=O)[O-])cc1OC | inactive: > 100 µM
30 | C=C(CN(C)C)C(=O)c1ccc(C(=O)C(=C)CN(C)C)cc1 | inactive: > 100 µM
31 | O=C(O)COc1ccc(O)c2c1C(=O)CCCC2=O | inactive: > 100 µM
32 | O=C1OC(OC/C(Br)=C(\Br)COC2OC(=O)C(Cl)=C2Cl)C(Cl)=C1Cl (stereo not given) | inactive: 18.7 µM
33 | COc1ccccc1Cc1nc(-c2ccccc2)nn(C2OC(COC(C)=O)C(OC(C)=O)C(OC(C)=O)C2OC(C)=O)c1=S (stereo not given) | inactive: 37 µM
34 | O=C1CSC(=S)N1/N=C/c1ccc(Cl)c([N+](=O)[O-])c1 | inactive: 37 µM
35 | O=C(CC1(O)C(=O)Nc2ccc([N+](=O)[O-])cc21)c1ccc2ccccc2c1 (stereo not given) | inactive: > 100 µM
36 | COc1ccc(/C=C(\C#N)c2nc(-c3cc4ccccc4oc3=O)cs2)cc1 | inactive: 92 µM
37 | Cc1ccc(-c2c(C#N)c(O)n(NS(=O)(=O)c3ccccc3)c(=O)c2C#N)cc1 | inactive: > 100 µM
38 | CCN(CC)CCN1C(=O)CC2[C@@H]3CCc4cc(OC)ccc4C3CC[C@]2(C)C1=O (stereo not given in full) | inactive: 24.1 µM
39 | C=CC1(NC(=O)c2ccccc2)CCC(C(C)(C)C)CC1 (stereo not given) | inactive: > 94 µM
40 | c1ccc(/N=C2\SC3=NCCN3\C2=N/c2ccccc2)cc1 | inactive: 16.7 µM
41 | CC1CC(c2ccccc2)Nc2nc3ccccc3n21 (stereo not given) | inactive: > 100 µM
42 | COc1ccc(/C=C/C(=O)c2sc(N)nc2C)cc1 | inactive: > 100 µM
43 | COC(=O)[C@H](CC(C)C)NC1=C(Cl)C(=O)c2c(O)ccc(O)c2C1=O | inactive: > 10 µM
44 | CCOC(=O)Cc1csc(N/C=C2/C(=O)Oc3ccccc3C2=O)n1 | inactive: 23.3 µM

Row | Structure (SMILES) | GI50
45 | Oc1cc(O)cc(-c2nc3cc(F)ccc3s2)c1 | inactive: 30 µM
46 | CCCCON1C[C@H](OC(C)=O)C(OC(C)=O)[C@H](OC(C)=O)C1 (stereo not given in full) | inactive: > 100 µM
47 | COC(=O)Nc1nc2cc(S(=O)(=O)N3CCOCC3)ccc2[nH]1 | inactive: > 100 µM
48 | O=C(COc1ccc(OCC(=O)N2C(=O)CN(c3ccccc3)C2=S)cc1)N1C(=O)CN(c2ccccc2)C1=S | inactive: > 53.6 µM
49 | CC(C)c1ccc2c(c1)CCC1C(C)(C)[C@@H](O)CC[C@]21C (stereo not given in full) | inactive: 31.2 µM
50 | O=C(c1ccc2ccccc2c1)N(Cc1cccnc1)C(=S)N(Cc1cccnc1)C(=O)c1ccc2ccccc2c1 | inactive: 29 µM
51 | O=C(c1ccccc1)c1c(CC(O)c2ccccn2)n(C(=O)c2ccccc2)c2ccccc12 (stereo not given) | inactive: 17 µM
52 | [N-]=[N+]=NC1=CC(=O)c2cccc3cccc1c23 | inactive: 52.2 µM
53 | COC(=O)N(C(=O)OC)C(C(=O)O)C(C)C (stereo not given) | inactive: > 100 µM
54 | CCCCCCCCCCCCCCCCCC(=O)OCC1OC(OC)C(NC(=O)N(CCCl)N=O)C(O)C1O (stereo not given) | inactive: 34.9 µM
55 | CCC(/C(=N\Nc1c(Cl)cc(Cl)cc1Cl)c1ccccc1)n1ccnc1C (stereo not given) | inactive: 14.4 µM
56 | CCOC(=O)C1S/C(=N\c2ccccc2)N=C1C (stereo not given) | inactive: > 100 µM
57 | Cc1cccc(Cl)c1NCC(O)CN1CCN(C)CC1 (stereo not given) | inactive: > 100 µM
58 | Cc1ccc([N+](=O)[O-])cc1S(=O)(=O)Nc1ccc(C2=NN(S(=O)(=O)c3cc([N+](=O)[O-])ccc3C)C(c3ccccc3O)C2)cc1 (stereo not given) | inactive: > 100 µM
59 | c1ccc(CNc2ccc3[nH]c4cnccc4c3c2)cc1 | inactive: 18.6 µM
60 | CC1(C)COC(/C=C/C2=NC(C)(C)CO2)=N1 | inactive: 19 µM
61 | CCCCC(=O)OCC(=O)[C@]1(O)Cc2c(O)c3c(c(O)c2[C@@H](OC2CC(NC(=O)C(F)(F)F)C(O)C(C)O2)C1)C(=O)c1c(OC)cccc1C3=O (stereo not given in full) | inactive: 2.27 µM
62 | C1=Cc2nc1c(-c1ccncc1)c1ccc([n-]1)c(-c1ccncc1)c1nc(c(-c3ccncc3)c3ccc([n-]3)c2-c2ccncc2)C=C1.[Zn+2] | inactive: > 100 µM
63 | COc1cc(OC)c2c(c1-c1ccc(C)cc1)CC(C)N(Cc1ccccc1)[C@H]2C (stereo not given in full) | inactive: 43.5 µM
64 | O=C1C=CC(=O)c2c(O)nc(CBr)nc21 | inactive: > 100 µM
65 | OC1(c2ccc(Cl)cc2)c2c(ccc3c2OCO3)C2=NCCN21 (stereo not given) | inactive: 13.3 µM
